Consider one protein from article PMC10319797, “Fully co-factor-free ClearTau platform produces seeding-competent Tau fibrils for reconstructing pathological Tau aggregates” (Nature Communications, 2023).

The data set concerns the molecule itself. The data set can be described thus: co-sedimentation; ClearTau reaction: Tau monomer alone in heparin-coated tubes (heparin covalently immobilized, none in solution), 37 °C with orbital shaking, 24-48 h; ultracentrifuged at 100'000 g for 1 h at 4 °C into supernatant and pellet, SDS-PAGE; fibrils also followed by ThS fluorescence, CD and EM; monomer to fibrils.

B1: Tau 3R1N (natural protein)
chain: not shown
notes: source: E. coli BL21, purified (protocol similar to 4R2N)
Take B1: the binding result was “binds”.
